Reference: paper PMC4336329 (PLoS ONE, 2015)
Out of some 310,000 compounds screened, about 2,200 (0.71%) showed an effect of 50% or more. The effect is printed as a negative number. The list shows a part of the results.

Target: human ether-à-go-go-related gene (hERG) potassium channel (human, UniProt Q12809)
Assay: primary screen, population patch clamp on CHO cells stably expressing hERG

Chain of human ether-à-go-go-related gene (hERG) potassium channel (Q12809 whole entry, looked up): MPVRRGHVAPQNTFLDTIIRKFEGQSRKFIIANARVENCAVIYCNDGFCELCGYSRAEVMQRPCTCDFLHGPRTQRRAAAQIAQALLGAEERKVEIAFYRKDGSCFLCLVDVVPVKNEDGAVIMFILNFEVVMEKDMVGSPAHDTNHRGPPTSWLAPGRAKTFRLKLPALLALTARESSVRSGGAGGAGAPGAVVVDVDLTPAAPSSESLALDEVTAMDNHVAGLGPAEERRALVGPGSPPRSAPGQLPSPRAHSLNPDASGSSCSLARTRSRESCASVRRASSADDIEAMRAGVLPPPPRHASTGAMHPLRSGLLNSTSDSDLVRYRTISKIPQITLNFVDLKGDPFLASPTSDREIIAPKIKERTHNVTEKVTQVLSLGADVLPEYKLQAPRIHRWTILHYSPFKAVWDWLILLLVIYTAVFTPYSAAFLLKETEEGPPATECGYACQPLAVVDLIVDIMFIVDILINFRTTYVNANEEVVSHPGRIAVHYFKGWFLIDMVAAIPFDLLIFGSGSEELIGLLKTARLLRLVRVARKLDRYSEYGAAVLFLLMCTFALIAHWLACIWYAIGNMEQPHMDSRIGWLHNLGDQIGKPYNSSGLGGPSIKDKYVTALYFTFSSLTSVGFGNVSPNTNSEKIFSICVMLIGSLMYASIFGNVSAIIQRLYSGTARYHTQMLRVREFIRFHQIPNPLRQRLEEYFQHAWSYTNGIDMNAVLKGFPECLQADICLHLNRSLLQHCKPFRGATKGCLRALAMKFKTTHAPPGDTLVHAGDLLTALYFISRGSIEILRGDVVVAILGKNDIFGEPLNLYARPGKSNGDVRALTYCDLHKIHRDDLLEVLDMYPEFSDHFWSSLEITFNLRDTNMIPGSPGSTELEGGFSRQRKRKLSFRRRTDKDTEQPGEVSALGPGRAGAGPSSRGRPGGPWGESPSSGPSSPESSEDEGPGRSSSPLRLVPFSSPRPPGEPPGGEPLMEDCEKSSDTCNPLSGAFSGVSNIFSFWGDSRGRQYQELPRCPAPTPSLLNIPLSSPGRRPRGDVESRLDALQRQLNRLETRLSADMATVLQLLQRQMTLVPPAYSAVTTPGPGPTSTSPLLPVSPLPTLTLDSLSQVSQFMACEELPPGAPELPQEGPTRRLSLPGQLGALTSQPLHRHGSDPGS

Row | SMILES | hERG current change (%, negative = inhibition) at 1uM [%]
1 | CCOc1ccccc1NC(=O)CSc1nnc2c(CC)c(C)nc(N)n12 | 5.61
2 | CC(C)CC(=O)Nc1ccc(C(=O)NNC(=O)C(c2ccccc2)c2ccccc2)cc1 | 12.2
3 | C=CC[n+]1c(-c2ccccc2)csc1NC(C)(C)C.[Br-] | 11
4 | COc1ccc(CCNC(=O)CN(c2cccc([N+](=O)[O-])c2)S(C)(=O)=O)cc1OC | 14.2
5 | O=C(NCc1ccc2c(c1)OCO2)c1nc(Cn2cc([N+](=O)[O-])cn2)no1 | -12.9
6 | O=C(C(=O)N1CCOCC1)c1cn(Cc2c(F)cccc2Cl)c2ccccc12 | 11.6
7 | CCC(C)C(NC(=O)c1ccc(Cl)cc1Cl)C(=O)O (stereo not shown) | 16.7
8 | COc1ccc2nc(NC(=O)CCNS(=O)(=O)c3ccc4c(c3)oc(=O)n4C)sc2c1 | 2.87
9 | CC(OC(=O)c1n[nH]c2ccccc12)C(=O)Nc1ccccc1[N+](=O)[O-] (stereo not shown) | 11.4
10 | Cc1cccc(C)c1Nc1c(-c2ccc(N3CCOCC3)cc2)nc2cnccn12 | 7.49
11 | CCOC(=O)CON1C(=O)C(=O)N(OCC(=O)OCC)C2CCCCC21 (stereo not shown) | 11.4
12 | CC(NC(=O)CCCCCN1C(=O)c2ccccc2C1=O)c1ccc2c(c1)CCCC2 (stereo not shown) | 0.26
13 | CSc1nc2ccc(S(=O)(=O)N3CCOCC3)cc2s1 | 10.4
14 | Cc1ccc(S(=O)(=O)NCC(=O)NC2CC2)cc1 | 18
15 | O=C(CN1C(=O)CSC1=O)Nc1ccc(C(=O)O)cc1 | 3.19
16 | Cc1nnc(SCc2ccccc2CSc2nnc(C)s2)s1 | 12.9
17 | O=C1CC2(CCCC2)Oc2ccc(F)cc21 | -0.826
18 | CC(C)C[C@H](NC(=O)[C@H](Cc1ccccc1)n1c(=O)[nH]c2ccccc2c1=O)C(=O)N1CCC[C@H]1C(=O)O | 8.84
19 | O=C(CCC(=O)c1cccs1)OCC(=O)N1CCN(C(=O)c2ccco2)CC1 | 11.7
20 | Cc1ccc(C)c(C(=O)CSc2nnc(C)s2)c1 | 8.84
21 | CCOc1ccc(Nc2nc3ccccc3n3nnnc23)cc1 | 6.56
22 | Cc1cccc(C)c1OCC(O)Cn1nnc2ccccc21 (stereo not shown) | 6.24

Row | SMILES | hERG current change (%, negative = inhibition) at 1uM [%]
23 | Cc1c(Cl)cccc1NC(=O)CC1Oc2ccccc2NC1=O (stereo not shown) | 14.5
24 | CCCOc1ccc2ccccc2c1/C=N/n1c(C)nnc1-n1nc(C)cc1C | 6.14
25 | COc1cccc(N=Nc2c(N)[nH]n3c(=O)c4c(nc23)CCCC4)c1 | 3.19
26 | COc1ccc(Cl)cc1C(=O)n1cnc2ccccc21 | 16.7
27 | C=CCn1c(SCc2cc(=O)n3cc(C)ccc3n2)nnc1-c1cccc(C)c1 | -15.6
28 | Cc1cccc(-n2ncc3c2CCCC3NC(=O)c2ccc[n+]([O-])c2)c1C (stereo not shown) | 8.13
29 | COc1ccccc1C(=O)NNC(=O)C(=O)NC(C)C | 6.02
30 | OC[C@@H](O)C1OC2NC(=S)OC2C1O (stereo partly shown) | 9.58
31 | Cc1ccc(NC(=O)COC(=O)/C=C/c2ccccc2)cc1S(=O)(=O)N1CCOCC1 | 6.56
32 | COc1cccc(N2[C@@H](CC(=O)O)c3ccccc3S2(=O)=O)c1 | 19.9
33 | CC1=CC(C)(C)Nc2ccc(OC(=O)C(Cc3ccccc3)N3C(=O)C4CCCCC4C3=O)cc21 (stereo not shown) | 9.08
34 | C/C(=N\O)C(=O)NCCN1CCCCC1 | 3.26
35 | O=C(Nc1nc(-c2ccccn2)cs1)c1ccccc1-n1cnnn1 | 2.63
36 | Cc1cc(C)cc(N(C(=O)CNC(=O)c2cccs2)C(C(=O)NC2CCCC2)c2cccnc2)c1 (stereo not shown) | 14.3
37 | CCOc1cccc(C(=O)Nc2ccc3ccccc3c2)c1 | 17.6
38 | COC(=O)c1ccc2nc(NC(=O)C(C)C)sc2c1 | 7.46
39 | COc1cccc(C2=CC(=O)C[C@H](c3ccc(F)cc3)C2)c1 | 3.47
40 | COc1ccc(Cl)cc1NC(=O)C(C)OC(=O)C1=NNC(=O)CC1 (stereo not shown) | 9.19
41 | CCCc1n(CC(O)COC2CCCCC2)c2ccccc2[n+]1C.[I-] (stereo not shown) | 7.07
42 | CC(=O)Nc1ccc(N/C=C/C(=O)c2ccc(C)cc2)cc1 | 17.8
43 | CCN(CC(=O)NCc1cccs1)C(=O)c1ccc(S(=O)(=O)N(C)C)cc1 | 18.7
44 | COc1ccc(CN2CCNC(=O)C2CC(=O)N2CCCCO2)c(OC)c1 (stereo not shown) | 13.3

Row | SMILES | hERG current change (%, negative = inhibition) at 1uM [%]
45 | CN(C(=O)c1cccc(Cl)c1)C1CCCN(Cc2ccccc2F)C1 (stereo not shown) | 7.33
46 | C/C=C(/C)C(=O)O[C@@H]1c2cc3c(c4c2[C@@]2(CO4)C(=O)C(OC)=C(OC)C=C2C[C@@H](C)[C@H]1C)OCO3 | 4.77
47 | O=C(Nc1ccsn1)c1ccc(Cl)cc1Cl | 17.8
48 | COC(=O)CC(NC(=O)c1ccco1)c1ccc(C(C)C)cc1 (stereo not shown) | 9.91
49 | c1ccc(OCCSc2nnc3sc4ccccc4n23)cc1 | 13
50 | Nc1[nH]nc2nc3ccccc3cc12 | 16.9
51 | O=C(CN1CCOCC1)N/N=C/c1ccc(-c2cccc(Cl)c2Cl)o1 | -48.8
52 | NC(=O)C1CCN(CC(O)COc2ccc(-c3ccccc3)cc2)CC1 (stereo not shown) | 4.59
53 | O=C1CN(C(=S)Nc2ccccc2Cl)CCN1 | 5.18
54 | CN1CCCCC1CCN1c2ccccc2Sc2ccc(S(C)=O)cc21.O=S(=O)(O)c1ccccc1 (stereo not shown) | -25.3
55 | CC(=O)c1nc(N2C(=O)CC(Cc3cccc(C)c3)C2=O)sc1C (stereo not shown) | -1.96
56 | CC1Cc2ccccc2N1C(=O)c1cccnc1 (stereo not shown) | 3.36
57 | CC(C)=CCOc1ccc2c(C)c(CC(=O)N3C[C@H]4C[C@@H](C3)c3cccc(=O)n3C4)c(=O)oc2c1C | -18.5
58 | O=S(=O)(c1ccccc1)N1CCN(C2CCN(Cc3ccccc3)CC2)CC1 | -64.1
59 | O=C(O)C1CCCCC1C(=O)Nc1ccccc1Nc1ccccc1 (stereo not shown) | -4.33
60 | COc1ccccc1-c1nnc(SCC(=O)Nc2ccc(N3CCOCC3)cc2)n1C | 1.8
61 | COCC(=O)OCC(=O)c1cc(C)n(-c2ccc(Br)cc2)c1C | 5.49
62 | CC(/C=N/NC(=O)CCn1nnc2ccccc21)=C\c1ccccc1 | 18.3
63 | CCOC(=O)N1CCC(N2C(=O)c3ccccc3C2Nc2cc(C(=O)OC)cc(C(=O)OC)c2)CC1 (stereo not shown) | 5.16
64 | Cc1cc2c(n1-c1ccc(C(N)=O)cc1)CC(C)(C)CC2=O | 5.52
65 | CCCCOc1ccccc1NC(=O)CC1SC(=NCC)N(CC)C1=O (stereo not shown) | 12.2
66 | Cc1ccc(NC(=O)CN2C(=S)NC(C)(C)CC2C)cc1Cl (stereo not shown) | 13.7

Row | SMILES | hERG current change (%, negative = inhibition) at 1uM [%]
67 | COc1ccc(CCNC(=O)CNC(=O)Cn2ccc3ccccc3c2=O)cc1OC | 9.27
68 | NC(=O)c1ccc(-c2csnn2)cc1 | 1.23
69 | O=C(N1CCOCC1)N(CCN1CCOCC1)Cc1cccc(Cl)c1 | 5.16
70 | Cc1ccc(-c2nn(C)c(=O)c3ccccc23)cc1CNC(=O)CSc1nc2ccccc2o1 | -0.172
71 | Cc1cccc(C(=O)Nc2cc(Cl)ccc2-n2cncn2)c1[N+](=O)[O-] | 6.65
72 | O=C(O)CCC(=O)N1CCc2cc(S(=O)(=O)NCCc3ccc(Cl)cc3)ccc21 | 10.8
73 | Cn1c(=O)c2c(-c3ccccc3)n(Cc3cccnc3)cc2n(C)c1=O | 14.3
74 | CCOc1ccc(CN2CCN(Cc3c(C)nn(CC)c3C)CC2CCO)cc1 (stereo not shown) | -20.7
75 | O=C(NCc1cccs1)C(NS(=O)(=O)c1cccc2nsnc12)c1ccccc1 (stereo not shown) | 6.82
76 | COc1cccc(-c2csc(N3CCN(C(=O)Nc4ccc(F)cc4)CC3)n2)c1 | 0.939
77 | CCOc1ccc(N(CC(=O)N2CCC(Cc3ccccc3)CC2)S(C)(=O)=O)cc1 | 5.21
78 | CNc1cc(C)c(C#N)c2nc3ccccc3n12 | 3.69
79 | Cc1ccc(C)c(OCC(=O)Nc2cc(C)on2)c1 | 9.74
80 | COc1ccc(C(=O)Nc2ccnn2C2CCN(C(=O)CCC(F)(F)F)CC2)cc1 | 12.7
81 | Cc1ccc(C(C)(C)NC(=O)C2CCC(=O)N(Cc3ccccc3F)C2)cc1 (stereo not shown) | 22.3
82 | O=C(COC(=O)c1ccc(Cl)nc1)c1ccc2c(c1)OCCO2 | 13.9
83 | CCOC(=O)C1CCN(c2c(NCCCN(CC)c3ccccc3)c(=O)c2=O)CC1 | 8.8
84 | COc1ccc(S(=O)(=O)N2CCN(Cc3ccc(Cl)cc3)CC2)cc1 | -4.05
85 | Cc1ccc(NC(=O)c2cccs2)cc1[N+](=O)[O-] | 10.9
86 | CC(C)(C)C(=O)NCCN1C(=O)S/C(=C\c2ccc([N+](=O)[O-])cc2)C1=O | 2.31
87 | Cc1ccccc1CS(=O)(=O)CC1(O)CCN(C(=O)c2cccc(C(F)(F)F)c2)CC1 | 14.2
88 | COc1ccc(N2CCN(CCNC(=O)C3CCN(S(=O)(=O)c4cccs4)CC3)CC2)cc1 | -20.5
